viability, T/C and IC50 data for five compounds are collected here from PubChem BioAssay AID1963839 (Molecular Pharmacology Branch, DTP, NCI, 2024).

In general, IC50 refers to the concentration needed to halve the response being measured.

The assay has as its system 817829-284-R-J1-PDC complex spheroid viability. Description: Anticancer human tumor 817829-284-R-J1-PDC patient-derived colon adenocarcinoma cell line growth inhibition [POLQ]. The following applies: for viability, T/C: stronger effect = lower value; for IC50: compound alone. Here is the method:
Multicellular complex tumor spheroid response to Polymerase (POL) inhibitors (novobiocin, ART-558, RP6685) in combination with a variety of drugs and investigational agents in selected tumor cell lines
The POL inhibitors (novobiocin, ART-558, and RP6685) were evaluated both individually and in combination with standard of care and investigational anticancer small molecules within a complex spheroid model of solid tumors. . Complex spheroids include a stromal component modeled by human endothelial cells (HUVEC) and fibroblasts modeled by human mesenchymal stem cells (MSCs). The concentration ranges selected for each drug and investigational agent were based upon clinically achievable concentrations if the clinical Cmax of the agent was known.
Compounds. The drugs and investigational agents: novobiocin (NSC847541), ART-558 (NSC835418), RP-6685 (NSC848927), peposertib (NSC802822), ceralasertib (NSC780249), elimusertib (NSC800525), camonsertib (NSC841442), AZD-1390 (NSC803789), olaparib (NSC753686), talazoparib (NSC767125), rucaparib (NSC756644), sotorasib (NSC818433), MRTX-1133 (NSC836407), SN-38 (NSC673596), topotecan (NSC609699), epotoside (NSC141540), doxorubicin (NSC123127), gemcitabine (NSC613327), 5-fluorouracil (NSC19893), paclitaxel (NSC125973), vemurafenib (NSC761431), MSA-2 (NSC828583), SN-011 (NSC837082), adavosertib (NSC754352), prexasertib (NSC758257), carboplatin (NSC241240) and oxaliplatin (NSC266046), were obtained from the National Cancer Institute (NCI) Developmental Therapeutics Program Chemical Repository (21). The FDA-approved anticancer drug set is available from the Developmental Therapeutics Program at https://dtp.cancer.gov/organization/dscb/obtaining/. […] The stock solutions were prepared in dimethyl sulfoxide (DMSO, Sigma-Aldrich, St. Louis, MO, cat. D2650), except for the platinum compounds which were prepared in saline (Quality Biological, Gaithersburg, MD, cat. 114-055-101), at 800-fold the tested concentration and stored at -70 degrees C prior to their use. All drugs and investigational agents were tested over a range starting from a high concentration at or near the clinical Cmax and decreasing in half-log increments. If the clinical Cmax for an agent had not been determined, the highest concentration tested was 10 microM, except for SN-38, which was tested at a high concentration of 1 microM.
Cell Culture. All cells were maintained in an incubator at 37 degrees C and 5% CO2 with 95% humidity. The PDC lines were cultured according to standard operating procedures established by the NCI PDMR (https://pdmr.cancer.gov). Table 3 of the manuscript, lists the cell lines along with the number of the three cell types plated to form the mct-spheroids and media for tumor cell growth. After thawing, all PDC lines, except 997537-175-T-J1-PDC and 415267-285-R-J2-PDC, were cultured in Matrigel-coated flasks prepared with a working solution of 1X Ham's F-12 nutrient mix, without supplementation (Thermo Fisher Scientific, cat. 11765054), 100 U/mL penicillin-streptomycin (Thermo Fisher Scientific, cat. 15140122), and 2.5% Matrigel (Corning Inc., Corning, NY, cat. 354248) for the first three passages. The two PDC lines 997537-175-T-J1-PDC and 415267-285-R-J2-PDC were cultured on uncoated flasks. The 857933-349-R-J2-PDC line was cultured in 6C/Colon 1B media containing advanced DMEM/F-12 (Thermo Fisher Scientific, cat. 12634028), 10 mM HEPES (Thermo Fisher Scientific, cat. 15630080), 1X GlutaMAX supplement (Thermo Fisher Scientific, cat. 35050061), 0.1 mg/mL primocin (InvivoGen, San Diego, CA, cat. ant-pm-2), 10% defined fetal bovine serum, heat inactivated (HyClone Laboratories Inc., Logan, UT, cat. SH30070.03HI), 50% L-WRN conditioned media (ATCC, cat. CRL-3276), 1.25 mM N-Acetyl-L-cysteine (Sigma-Aldrich, cat. A9165), 10 mM nicotinamide (Sigma-Aldrich, cat. N0636), 1X B-27 supplement (Thermo Fisher Scientific, cat. 17504044), 1X N-2 supplement (Thermo Fisher Scientific, cat. […]

The structures appear in SMILES notation. Certain results were filed several times, with different values. This is not the full list of results. An entry can have further records. The records of an entry are repeats (runs, samples, wells, individuals or studies). Marks such as (2×) stand for listed records that agree. Marks such as [2022-09] give the month of the run.
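Note: spheroids exposed to compounds for 7 days.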
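Throughout, for viability, T/C: 100% = DMSO vehicle-treated spheroids.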

With `Nc1ccc(C#CCN(C(=O)Cc2ncc(C(F)(F)F)cc2C(F)(F)F)c2ccc(F)cc2)nn1`, the viability, T/C by setting is: (compound alone 0.0316 µM) 102, 92.3, 118, 101 (2×), 96.3, 110, 113, 87.9, 88.4, 93.5, 109, 96.8%; (compound alone 0.1 µM) 107, 104 (2×), 112, 93.3, 94.1, 109, 96.1, 120, 99.8, 101, 108, 96.7%; (compound alone 0.316 µM) 93.9, 91.8, 105 (2×), 92.3, 93.6, 98.3, 107, 94.2, 108, 119, 109, 99%; (compound alone 1 µM) 104 (2×), 97.5, 112, 87.7, 83.7, 103, 102, 107, 96.1, 100, 106, 89%.

For `O=C(c1cc(Cc2n[nH]c(=O)c3ccccc23)ccc1F)N1CCN(C(=O)C2CC2)CC1`, the IC50 was < 31.6 nM, 2.27 µM [2023-11] and 5.26 µM [2023-12]. For the same compound, under “compound alone 0.0316 µM”, the viability, T/C is 6.95%, 109% [2023-11] and 99% [2023-12]. Further, the viability, T/C (compound alone 0.1 µM) was 5.24%, 99.7% [2023-11] and 89.7% [2023-12]. Further, the viability, T/C (compound alone 0.316 µM) is 6.64%, 73.1% [2023-11] and 91.8% [2023-12]. The viability, T/C (compound alone 1 µM) is 5.74%, 77.2% [2023-11] and 83.6% [2023-12]. Besides, the viability, T/C (compound alone 3.16 µM) is 6.52%, 36.8% [2023-11] and 63.2% [2023-12].

With `Cc1cccc(N(C)C(=O)C2C(O)CCN2c2nc(C)cc(C(F)(F)F)c2C#N)c1` (stereo not drawn), the viability, T/C was 92.5, 110, 77.6, 96.9, 87.6, 115, 118, 121% [2023-11] and 103, 91, 101, 112, 91.3% [2023-12] (compound alone 0.0316 µM); 80, 122, 116, 107, 82.3, 137, 111% (2×) [2023-11] and 106, 111, 113, 120, 92.2% [2023-12] (compound alone 0.1 µM); 97.8, 108, 120, 76.3, 89.3, 122, 112, 105% [2023-11] and 106, 105 (2×), 84, 108% [2023-12] (compound alone 0.316 µM); 95.2 (2×), 102, 90.1, 62.3, 95.6, 103, 122% [2023-11] and 114, 99.8, 103, 107, 101% [2023-12] (compound alone 1 µM); 111, 103, 98.3, 92, 88.9, 100, 126, 80% [2023-11] and 102, 103, 98.6, 104, 92.4% [2023-12] (compound alone 3.16 µM).

Turning to `COC1C(OC(N)=O)C(O)C(Oc2ccc3c(O)c(NC(=O)c4ccc(O)c(CC=C(C)C)c4)c(=O)oc3c2C)OC1(C)C` (stereo not drawn), the viability, T/C is 82, 106, 81.6, 112, 118, 102, 94.2, 108, 88.9, 88.5, 116, 107, 86.5% (compound alone 0.0316 µM); 82.1, 83.3, 88, 115, 117 (2×), 102, 76.1, 97.8, 106, 103, 99.2, 79.6% (compound alone 0.1 µM); 88.7, 99.7, 109, 114, 94.6, 120, 102, 132, 101, 81.5, 87.7, 83, 104% (compound alone 0.316 µM); 93.2 (2×), 68.1, 86.8, 109 (2×), 96, 97.7, 114, 113, 78.1, 83.8, 95.9% (compound alone 1 µM); 113, 77.7, 61.7, 78.6, 79.7, 101, 94.8, 104, 103, 112, 111, 95.8, 72.4% (compound alone 3.16 µM); 113 (2×), 114, 134, 105 (2×), 95.6, 96.6, 115, 103, 87.7, 95, 95.5% (compound alone 10 µM).

Take `CC(C)n1c(=O)n(C)c2cnc3cc(F)c(-c4ccc(OCCCN5CCCCC5)nc4)cc3c21`: the IC50 is < 31.6 nM, 7.27 µM [2023-11] and > 10 µM [2023-12]. The viability, T/C (compound alone 0.0316 µM) was 5.85%, 71.3% [2023-11] and 81.2% [2023-12]. Besides, for the setting “compound alone 0.1 µM”, the viability, T/C was 6.01%, 71.6% [2023-11] and 87.1% [2023-12]. For the setting “compound alone 0.316 µM”, the viability, T/C was 6.12%, 71.9% [2023-11] and 91.1% [2023-12]. Further, where the note is “compound alone 1 µM”, the viability, T/C is 6.82%, 90.8% [2023-11] and 73.3% [2023-12]. Moreover, for the setting “compound alone 3.16 µM”, the viability, T/C is 6.55%, 76.8% [2023-11] and 88.2% [2023-12]. Further, the viability, T/C (compound alone 10 µM) is 9.02%, 40% [2023-11] and 65.6% [2023-12].
